In PMC12136788:
This is one part of the list.

T1: UNK ZnF1-6 (called full-length) (human, UniProt Q9C0B0 30-357)
T1 sequence: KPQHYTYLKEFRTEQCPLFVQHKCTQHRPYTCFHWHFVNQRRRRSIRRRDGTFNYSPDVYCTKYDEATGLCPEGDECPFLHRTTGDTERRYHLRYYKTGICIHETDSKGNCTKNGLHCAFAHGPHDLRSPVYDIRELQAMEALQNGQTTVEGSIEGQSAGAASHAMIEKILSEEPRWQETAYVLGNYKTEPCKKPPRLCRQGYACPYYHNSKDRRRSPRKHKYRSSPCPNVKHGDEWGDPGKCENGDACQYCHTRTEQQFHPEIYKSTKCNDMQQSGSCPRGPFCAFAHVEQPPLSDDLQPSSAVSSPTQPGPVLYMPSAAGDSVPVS

B1: chr11:7467339:7467451:+|3pUTR|ENSG00000170743|unk|total|mutant (ssRNA)
RNA: GGGAGUUCUACAGUCCGACGAUCCCAAGAGAAUACCAAGACAAGCAGGCUGUUCCCUGGAAAAAAUCUAAUGCAAGGAGGGCCCGUUCACAGCAAAUUCACUGCCUCCUCCCAUGCACGUGGCCGAGAGUACCAGUAUCAACACAACAGAGGAUUGAGCAUCA
B2: chr4:99420532:99420793:-|CDS|ENSG00000196344|control|control|control (ssRNA)
RNA: GGGAGUUCUACAGUCCGACGAUCUGCAUCUAGGAUCAUUGGGAUUGACCUCAACAAAGACAAAUUUGAGAAGGCCAUGGCUGUAGGUGCCACUGAGUGUAUCAGUCCCAAGGACUCUACCAAACCCAUCAGUGAGGUGCUGUCCAACAGAGGAUUGAGCAUCA
B3: chr1:154207159:154207278:-|3pUTR|ENSG00000143612|msi1_unk|total|mutant (ssRNA)
RNA: GGGAGUUCUACAGUCCGACGAUCUUCCCCAACCCUUCCUUAUGAGCAUUUUCCGAACAUUGGCUAAGACUAUUUUCCCCCAGCCGCGCUUUUUUCUGGAUUUGCAUUCAGGUGUUAUUCUUAAUGUUUCUGUCAAAGCUUCUUCAACAGAGGAUUGAGCAUCA
B4: chrX:30854639:30854752:-|CDS|ENSG00000157625|unk|total|mutant (ssRNA)
RNA: GGGAGUUCUACAGUCCGACGAUCUUCAGCUCUCCACAGCAUCAAGUGCAACCUUCCCAGUUGGGCCACAUCUUUAUGCCACCCCGUCCUUCAACUACUCCACCCCAUCCAUAUCAACAAGGACCUCCCCGCUAUCAGAAACAGCAACAGAGGAUUGAGCAUCA
B5: ENSG00000139116:stop:overlap|stop_codon|ENSG00000139116|stop_codon|NA|stop_codon (ssRNA)
RNA: GGGAGUUCUACAGUCCGACGAUCAUGCUUUACUAGGCCAUGCUUUACAAGAUCUAGAUAGCGUACCAUUAGGUAAGUAUGUUUAGCUUUCUGUGUAUCCUACAGCUGCAUGAAUUACUAAUUGUUCAUGUACACUAAUUGUGGCAACAGAGGAUUGAGCAUCA
B6: chr1:193013303:193013404:-|3pUTR|ENSG00000116750|unk|total|mutant (ssRNA)
RNA: GGGAGUUCUACAGUCCGACGAUCAAACCACUCCCGCUAUUUGAAGAGGAAUGCAGAUUUAUAUUGGGAGUUUUGAAACUACACCGUUUCUUACAAAAUCAUUGGAAGGUUUGGAGGAGCGGUUUCAAGCUUAAGUCUCCAGAGCAACAGAGGAUUGAGCAUCA

molecular target: T1, UNK ZnF1-6 (called full-length); assay: nsRBNS (natural sequence RNA bind-n-seq); RBNS binding buffer (assumed for nsRBNS): 25 mM Tris pH 7.5, 150 mM KCl, 3 mM MgCl2, 0.01% Triton X-100, 500 ug/ml BSA, 20 U/ml SUPERase-In, 4 C; UNK is unkempt and MSI1 is Musashi-1; names of the RNAs are library labels; protein concentration not given here; high values mean tight binding

| Binder | binding signal [enrichment R] |
| --- | --- |
| B1 | 0.705 |
| B2 | 0.543 |
| B3 | 0.479 |
| B4 | 0.998 |
| B5 | 0.692 |
| B6 | 0.619 |
